Source: the antibiotic and cytotoxicity screens of Wong et al. (2023)
Some of the results follow.

Tested on: S. aureus RN4220
Experiment: growth inhibition call (relative growth <= 0.2)
Conditions: 50 µM

Growth inhibition call, inactive:
COc1cc2c(cc1O)[C@H](c1ccc(CN3CCCC3)cc1)N(Cc1cc3c(cc1Br)OCO3)CC2
C[C@@H]1CCCCO[C@@H](CN(C)Cc2ccc(Cl)c(Cl)c2)[C@H](C)CN([C@H](C)CO)C(=O)c2cc(NC(=O)c3ccccc3)ccc2O1
CC1C(=O)CCC2C1(C)CCC1C2(C)CCC2(C)C3CC(C)(C)CCC3(C)CCC12C (stereo not given)
Cc1noc(C)c1NC(=O)Nc1ccc2c(c1)C(=O)N([C@@H](C)CO)C[C@@H](C)[C@H](CN(C)S(=O)(=O)c1ccccc1)OCCCC[C@@H](C)O2
C[C@@H]1CCCCO[C@@H](CN(C)Cc2ccncc2)[C@@H](C)CN([C@@H](C)CO)C(=O)c2cc(NC(=O)Nc3ccc(C(F)(F)F)cc3)ccc2O1
Cc1c[nH]c2ccccc12
CN(C)CCCN1C(=O)[C@@H]2[C@@H](C1=O)[C@@H]1C=C[C@@H]2C1
Cc1noc(C)c1S(=O)(=O)Nc1cccc2c1O[C@H](CN(C)C(=O)Nc1ccc3c(c1)OCO3)[C@H](C)CN([C@@H](C)CO)C2=O
C[C@H]1CN([C@@H](C)CO)C(=O)c2cccc(NC(=O)C3CCOCC3)c2O[C@@H]1CN(C)S(=O)(=O)c1ccc(F)cc1
COc1ccc([Si](C)(C)[C@@H]2[C@@H](CC(=O)N(CCO)Cc3ccccc3)O[C@]3(C(=O)N(C)c4c(Br)cc(C)cc43)[C@H]2C)cc1
Cc1noc(C)c1S(=O)(=O)Nc1ccc2c(c1)C(=O)N([C@@H](C)CO)C[C@H](C)[C@@H](CN(C)S(=O)(=O)c1ccc(F)cc1)O2
CCCOc1ccc(S(=O)(=O)NCC[C@@H]2CCCN2C)cc1-c1nc2c(CCC)nn(C)c2c(=O)[nH]1
Cc1ccc(S(=O)(=O)Nc2ccc3c(c2)C(=O)N([C@H](C)CO)C[C@@H](C)[C@@H](CN(C)S(=O)(=O)c2ccc(Cl)cc2)OCCCC[C@@H](C)O3)cc1
C[C@@H]1CN([C@H](C)CO)C(=O)c2cccc(NC(=O)Nc3ccccc3)c2O[C@H]1CN(C)C(=O)Nc1ccc(C(F)(F)F)cc1
C[C@@H]1CCCCO[C@@H](CN(C)S(=O)(=O)c2ccccc2)[C@H](C)CN([C@H](C)CO)C(=O)c2cc(NC(=O)CCC(F)(F)F)ccc2O1
C[C@@H]1CN([C@H](C)CO)C(=O)Cc2cc(NC(=O)c3ccncc3)ccc2O[C@H]1CN(C)Cc1ccc(-c2ccccc2)cc1
C[C@@H]1CCCCO[C@H](CN(C)Cc2ccncc2)[C@@H](C)CN([C@H](C)CO)C(=O)c2cc(NC(=O)Nc3ccc4c(c3)OCO4)ccc2O1
Cc1ccc(S(=O)(=O)N(C)C[C@H]2OCCCC[C@H](C)Oc3ccc(NC(=O)NC4CCCCC4)cc3C(=O)N([C@@H](C)CO)C[C@@H]2C)cc1
Clc1ccc(CSc2nc3ccccc3s2)cc1
CN(C)C1CN(S(=O)(=O)CCC2CC2)C1
